# Article PMC4242493
# The list shows a part of the results. The list includes weakly bound sequences.
# Molecular target: MaxL homodimer (UniProt P61244)
# Assay: universal protein-binding microarray (PBM)
# Details: PBS-based mixture, 10 nM His-tagged protein dimer, 2% milk, 200 ng/uL BSA, 50 ng/uL salmon testes DNA, 0.02% TX-100; detection with Alexa 488 anti-His …; high values mean tight binding; most listed sequences are background and not binding sites; double strand, one strand shown
# Chain of UniProt P61244 (P61244 whole entry): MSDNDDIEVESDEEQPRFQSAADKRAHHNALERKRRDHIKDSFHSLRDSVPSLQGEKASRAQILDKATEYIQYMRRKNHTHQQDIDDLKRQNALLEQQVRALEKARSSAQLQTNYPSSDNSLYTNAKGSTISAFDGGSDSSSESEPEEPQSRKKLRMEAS
row,Sequence,binding signal (normalized occupancy)
1,CCACAGAA,0.0794
2,CATGCCTC,0.0935
3,ATTTCGTA,0.076
4,CGAGGAGC,0.0711
5,AAATACTT,0.0716
6,CGCGCCTA,0.0755
7,ACGATCGG,0.0744
8,CGTTCTAA,0.0715
9,AGACATGG,0.0832
10,CATAGCCC,0.08
11,CACGCCAG,0.0816
12,ATCCCATC,0.0796
13,GTACGCAA,0.0786
14,ATCGATCC,0.0786
15,GAGAGCAA,0.0684
16,CCTTATGC,0.0797
17,TAACACGA,0.0776
18,GCAAATTA,0.0724
19,GATCACAA,0.0773
20,CATTTCTA,0.0751
21,CATAGAAA,0.0789
22,TCTTGGCA,0.0751
23,AGTCCACC,0.0809
24,AACCGGTA,0.0727

row,Sequence,binding signal (normalized occupancy)
1,ATGAATGC,0.0821
2,ACACCCGT,0.0789
3,CGGTTCTC,0.0689
4,AATGAGGT,0.0823
5,TAGCCCAA,0.0683
6,AGATTGAT,0.0745
7,CTGGGAGA,0.071
8,AGAGTTCC,0.0699
9,ACTCTTAA,0.0735
10,AGTTAAGC,0.076
11,AGTCGCCG,0.0648
12,CCGCATAG,0.0734
13,AGTATTAA,0.0823
14,CTGTCATC,0.0805
15,AACTCCGG,0.0677
16,ACCGGTTA,0.0751
17,TAGTTAAA,0.0739
18,CTCCCTTA,0.076
19,CGCTCGGA,0.0711
20,CATAGAAC,0.0803
21,AACTGCAG,0.0704
22,ACCCCTTG,0.0761
23,GGGTTTTA,0.0768
24,CTGCAAAG,0.0662

row,Sequence,binding signal (normalized occupancy)
1,ATACGAGA,0.0785
2,GGCCAACC,0.0741
3,CGCCGCTC,0.0669
4,ACAAAAAA,0.0723
5,TCACCAAA,0.0792
6,GCAGTACA,0.0754
7,TCTCTAAA,0.0709
8,CCTGTGTC,0.0725
9,AACATAAT,0.0823
10,AAGGTTGA,0.0728
11,AGTCCGAA,0.0706
12,AATAAGAT,0.0727
13,GTGTTTGA,0.0829
14,ATTCCATC,0.0772
15,ACATTAGA,0.0826
16,CCAAGTGG,0.0717
17,GTGGAAAC,0.079
18,ATCACTCG,0.08
19,CTGGCTCC,0.0673
20,CGAGGCAC,0.0822
21,ACACGTTA,0.118
22,CAATCGGC,0.0694
23,AATTCCAT,0.0775
24,CAACAATG,0.0787

row,Sequence,binding signal (normalized occupancy)
1,AAATAGTA,0.076
2,ATGAAATG,0.081
3,AGCTAAGC,0.0662
4,CGATCTAG,0.0719
5,AATGGACT,0.073
6,CTGACCAC,0.0772
7,AGTTACTC,0.0718
8,ATTCGAAG,0.074
9,CTGGTGCA,0.0776
10,TGATACAA,0.0772
11,GGGGGGAA,0.0895
12,GTATCATA,0.0848
13,CATCGGGG,0.0782
14,CACTCCAG,0.0748
15,CACAAGGA,0.0818
16,AGGGGATC,0.0787
17,AGGGCACA,0.0772
18,CATTGCCG,0.0713
19,ACACATAT,0.0874
20,GCCCTACC,0.07
21,CCTCAGCA,0.0731
22,GTAGTTAA,0.0781
